# The list shows a part of the results.
# B1: Gz-CVNH (Gibberella zeae) (protein)
# chain: MGSSHHHHHHSSGLVPRGSHMGNFHESSNNIWLEDGHILHAECGNGEGDYVESTLDLDYYIGNDDGSFSWGGENFSGSASNITLDIEGDDNIPVLRAELNPMDGDPVEANVNLSERIGNDCGTLIFLA
# Experiments:
# Assay in all cases: glycan array binding signal (z-score within array); higher = stronger binding
# Conditions in all cases: glycan notation: IUPAC condensed, linker removed
# [1] = biological target: GalNAc(b1-6)GalNAc
# Method in brief: (§1)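 The Consortium for Functional Glycomics database supplied 3228 glycan arrays, of which those lacking an available protein sequence were dropped. The binding signal, a within-array Z-score, was averaged across arrays of the same protein sequence and across linkers. Negative scores can be read as non-binding.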
# [2] = biological target: Glc(a1-4)Glc
# Method in brief: as §1
# [3] = biological target: Glc(a1-4)Glc(a1-4)Glc(a1-4)Glc
# Method in brief: as §1
# [4] = biological target: Glc(a1-6)Glc(a1-6)Glc
# Method in brief: as §1
# [5] = biological target: Glc(a1-6)Glc(a1-6)Glc(a1-6)Glc
# Method in brief: as §1
# [6] = biological target: Glc(b1-4)Glc
# Method in brief: as §1
# [7] = biological target: Glc(b1-6)Glc
# Method in brief: as §1
# [8] = biological target: GlcA(b1-3)Gal
# Method in brief: as §1
# [9] = biological target: GlcA(b1-3)GlcNAc
# Method in brief: as §1
# [10] = biological target: GlcA(b1-6)Gal
# Method in brief: as §1
# [11] = biological target: GlcNAc(a1-3)Gal(b1-4)GlcNAc
# Method in brief: as §1
# [12] = biological target: GlcNAc(a1-4)Gal(b1-3)GlcNAc
# Method in brief: as §1
# [13] = biological target: GlcNAc(a1-4)Gal(b1-4)GalNAc
# Method in brief: as §1
# [14] = biological target: GlcNAc(a1-4)Gal(b1-4)GlcNAc
# Method in brief: as §1
# [15] = biological target: GlcNAc(a1-4)Gal(b1-4)GlcNAc(b1-3)Gal(b1-4)Glc
# Method in brief: as §1
# [16] = biological target: GlcNAc(a1-4)Gal(b1-4)GlcNAc(b1-3)Gal(b1-4)GlcNAc
# Method in brief: as §1
# [17] = biological target: GlcNAc(a1-4)Gal(b1-4)GlcNAc(b1-3)Gal(b1-4)GlcNAc(b1-3)Gal(b1-4)GlcNAc
# Method in brief: as §1
# [18] = biological target: GlcNAc(a1-4)Gal(b1-4)GlcNAc(b1-3)Gal(b1-4)[Fuc(a1-3)]GlcNAc(b1-3)Gal(b1-4)[Fuc(a1-3)]GlcNAc
# Method in brief: as §1
# [19] = biological target: GlcNAc(a1-6)Gal(b1-4)GlcNAc
# Method in brief: as §1
# [20] = biological target: GlcNAc(b1-2)Gal(b1-3)GalNAc
# Method in brief: as §1
# [21] = biological target: GlcNAc(b1-2)Man(a1-3)[GlcNAc(b1-2)Man(a1-6)]Man(b1-4)GlcNAc(b1-4)GlcNAc
# Method in brief: as §1
# [22] = biological target: GlcNAc(b1-2)Man(a1-3)[GlcNAc(b1-2)Man(a1-6)]Man(b1-4)GlcNAc(b1-4)[Fuc(a1-6)]GlcNAc
# Method in brief: as §1
# [23] = biological target: GlcNAc(b1-2)Man(a1-3)[GlcNAc(b1-4)][GlcNAc(b1-2)Man(a1-6)]Man(b1-4)GlcNAc(b1-4)GlcNAc
# Method in brief: as §1
# [24] = biological target: GlcNAc(b1-2)[GlcNAc(b1-4)]Man(a1-3)[GlcNAc(b1-2)Man(a1-6)]Man(b1-4)GlcNAc(b1-4)GlcNAc
# Method in brief: as §1
# [25] = biological target: GlcNAc(b1-2)[GlcNAc(b1-4)]Man(a1-3)[GlcNAc(b1-4)][GlcNAc(b1-2)Man(a1-6)]Man(b1-4)GlcNAc(b1-4)GlcNAc
# Method in brief: as §1
# [26] = biological target: GlcNAc(b1-2)[GlcNAc(b1-4)]Man(a1-3)[GlcNAc(b1-4)][GlcNAc(b1-2)[GlcNAc(b1-6)]Man(a1-6)]Man(b1-4)GlcNAc(b1-4)GlcNAc
# Method in brief: as §1
# [27] = biological target: GlcNAc(b1-2)[GlcNAc(b1-6)]Man(a1-6)[GlcNAc(b1-2)Man(a1-3)]Man(b1-4)GlcNAc(b1-4)GlcNAc
# Method in brief: as §1
# [28] = biological target: GlcNAc(b1-2)[GlcNAc(b1-6)]Man(a1-6)[GlcNAc(b1-2)Man(a1-3)][GlcNAc(b1-4)]Man(b1-4)GlcNAc(b1-4)GlcNAc
# Method in brief: as §1
# [29] = biological target: GlcNAc(b1-3)Gal
# Method in brief: as §1
# [30] = biological target: GlcNAc(b1-3)Gal(b1-3)GalNAc
# Method in brief: as §1
# [31] = biological target: GlcNAc(b1-3)Gal(b1-4)Glc
# Method in brief: as §1
# [32] = biological target: GlcNAc(b1-3)Gal(b1-4)GlcNAc
# Method in brief: as §1
# [33] = biological target: GlcNAc(b1-3)Gal(b1-4)GlcNAc(b1-3)Gal(b1-4)GlcNAc
# Method in brief: as §1
# [34] = biological target: GlcNAc(b1-3)GalNAc
# Method in brief: as §1
# [35] = biological target: GlcNAc(b1-3)Man
# Method in brief: as §1
# [36] = biological target: GlcNAc(b1-3)[GlcNAc(b1-4)][GlcNAc(b1-6)]GlcNAc
# Method in brief: as §1
# [37] = biological target: GlcNAc(b1-3)[GlcNAc(b1-6)]Gal(b1-4)GlcNAc
# Method in brief: as §1
# [38] = biological target: GlcNAc(b1-3)[GlcNAc(b1-6)]GalNAc
# Method in brief: as §1
# [39] = biological target: GlcNAc(b1-4)Gal(b1-4)GlcNAc
# Method in brief: as §1
# [40] = biological target: GlcNAc(b1-4)GlcNAc
# Method in brief: as §1
# [41] = biological target: GlcNAc(b1-4)GlcNAc(b1-4)GlcNAc
# Method in brief: as §1
# [42] = biological target: GlcNAc(b1-4)GlcNAc(b1-4)GlcNAc(b1-4)GlcNAc(b1-4)GlcNAc
# Method in brief: as §1
# [43] = biological target: GlcNAc(b1-4)GlcNAc(b1-4)GlcNAc(b1-4)GlcNAc(b1-4)GlcNAc(b1-4)GlcNAc
# Method in brief: as §1
# [44] = biological target: GlcNAc(b1-4)[GlcNAc(b1-6)]GalNAc
# Method in brief: as §1
# [45] = biological target: GlcNAc(b1-6)Gal(b1-4)GlcNAc
# Method in brief: as §1
binder,measurement,setting,value
B1,glycan array binding signal (z-score),[1],-0.158
same,glycan array binding signal (z-score),[2],-0.146
same,glycan array binding signal (z-score),[3],-0.156
same,glycan array binding signal (z-score),[4],-0.178
same,glycan array binding signal (z-score),[5],-0.125
same,glycan array binding signal (z-score),[6],-0.165
same,glycan array binding signal (z-score),[7],-0.117
same,glycan array binding signal (z-score),[8],-0.144
same,glycan array binding signal (z-score),[9],-0.125
same,glycan array binding signal (z-score),[10],-0.151
same,glycan array binding signal (z-score),[11],-0.169
same,glycan array binding signal (z-score),[12],-0.097
same,glycan array binding signal (z-score),[13],-0.117
same,glycan array binding signal (z-score),[14],-0.142
same,glycan array binding signal (z-score),[15],-0.133
same,glycan array binding signal (z-score),[16],0.066
same,glycan array binding signal (z-score),[17],-0.131
same,glycan array binding signal (z-score),[18],0.061
same,glycan array binding signal (z-score),[19],-0.154
same,glycan array binding signal (z-score),[20],-0.153
same,glycan array binding signal (z-score),[21],-0.129
same,glycan array binding signal (z-score),[22],-0.01
same,glycan array binding signal (z-score),[23],-0.119
same,glycan array binding signal (z-score),[24],-0.15
same,glycan array binding signal (z-score),[25],-0.119
same,glycan array binding signal (z-score),[26],-0.112
same,glycan array binding signal (z-score),[27],-0.104
same,glycan array binding signal (z-score),[28],-0.14
same,glycan array binding signal (z-score),[29],-0.165
same,glycan array binding signal (z-score),[30],-0.101
same,glycan array binding signal (z-score),[31],-0.15
same,glycan array binding signal (z-score),[32],-0.114
same,glycan array binding signal (z-score),[33],-0.14
same,glycan array binding signal (z-score),[34],-0.121
same,glycan array binding signal (z-score),[35],-0.118
same,glycan array binding signal (z-score),[36],-0.114
same,glycan array binding signal (z-score),[37],-0.138
same,glycan array binding signal (z-score),[38],-0.143
same,glycan array binding signal (z-score),[39],-0.102
same,glycan array binding signal (z-score),[40],-0.123
same,glycan array binding signal (z-score),[41],-0.147
same,glycan array binding signal (z-score),[42],-0.153
same,glycan array binding signal (z-score),[43],-0.153
same,glycan array binding signal (z-score),[44],-0.172
same,glycan array binding signal (z-score),[45],-0.133

# Source: the supplement of paper PMC8728848
